In the antibiotic and cytotoxicity screens of Wong et al. (2023) one finds cytotoxicity call and growth inhibition call data, which are given here for 29 molecules.

One test concerns HSkMC. As to the kind of experiment: cytotoxicity call (relative viability < 0.9). As to conditions: 10 µM.
A further test has as its system HepG2. As to the kind of experiment: cytotoxicity call (relative viability < 0.9). As to conditions: 10 µM.
The next test relates to S. aureus RN4220. Description: growth inhibition call (relative growth <= 0.2). As to conditions: 50 µM.

The list shows a part of the results.

On to `COC(=O)C[C@H]1CC[C@@H]2[C@H](COC[C@@H](O)CN2S(=O)(=O)c2cn(C)cn2)O1`, for which the cytotoxicity call with HSkMC and in the test on HepG2 was “inactive” each time. The growth inhibition call in the test on S. aureus RN4220 is “inactive”.
As for `COc1ccc(CN(C)C[C@H]2OCCCC[C@H](C)Oc3ccc(NC(=O)NC4CCCCC4)cc3C(=O)N([C@H](C)CO)C[C@@H]2C)cc1`, the cytotoxicity call in the test with HSkMC and with HepG2 was “inactive” in each case. In addition, the growth inhibition call in the test with S. aureus RN4220 is “inactive”.
`COc1ccc2c3c([nH]c2c1)[C@H](CO)N(C[C@]13CN(Cc2nccs2)C1)S(=O)(=O)c1ccc(cc1)C`: the cytotoxicity call with HSkMC and in the test on HepG2 was “inactive” in each case. For the same molecule, in the test on S. aureus RN4220, the growth inhibition call is “inactive”.
For the molecule `C[C@H]1CN([C@@H](C)CO)C(=O)c2cc(C3=CCCCC3)cnc2O[C@H]1CN(C)S(=O)(=O)c1cn(C)cn1`, the cytotoxicity call in the test on HSkMC and in the test with HepG2 was “inactive” throughout. The growth inhibition call with S. aureus RN4220 was “inactive”.
For `NNC(=O)c1ccc(C(=O)NO)cc1`, the cytotoxicity call with HSkMC and in the test on HepG2 was “inactive” throughout. Also, in the test on S. aureus RN4220, the growth inhibition call was “inactive”.
Consider `COc1ccc(S(=O)(=O)Nc2cccc3c2O[C@H](CN(C)C(=O)Nc2cccc4ccccc24)[C@@H](C)CN([C@H](C)CO)C3=O)cc1`, for which the cytotoxicity call in the test with HSkMC and in the test with HepG2 was “inactive” in each case. Further, in the test on S. aureus RN4220, the growth inhibition call was “inactive”.
For the molecule `C[C@H]1CN([C@@H](C)CO)C(=O)CCCn2nncc2CO[C@@H]1CN(C)C(=O)Nc1cccc(Oc2ccccn2)c1`, the cytotoxicity call in the test on HSkMC and in the test with HepG2 was “inactive” throughout. Besides, the growth inhibition call in the test on S. aureus RN4220 is “inactive”.
For the molecule `O=c1[nH]c(=S)[nH]nc1O`, the cytotoxicity call with HSkMC and in the test on HepG2 was “inactive” each time. Also, the growth inhibition call in the test on S. aureus RN4220 was “inactive”.
Turning to `C[C@@H]1CCCCO[C@H](CN(C)C(=O)Cc2ccccc2)[C@@H](C)CN([C@@H](C)CO)C(=O)c2cc(NS(=O)(=O)c3ccc(Cl)cc3)ccc2O1`, the cytotoxicity call in the test on HSkMC and with HepG2 was “inactive” throughout. The growth inhibition call with S. aureus RN4220 was “inactive”.
Turning to `Cc1ccc(S(=O)(=O)N(C)C[C@H]2Oc3ccc(NC(=O)NC(C)C)cc3CC(=O)N([C@@H](C)CO)C[C@@H]2C)cc1`, the cytotoxicity call in the test with HSkMC and with HepG2 was “inactive” in each case. In the test on S. aureus RN4220, the growth inhibition call is “inactive”.
As to `C[C@H](CO)N1C[C@H](C)[C@@H](CN(C)C(=O)c2ccc(F)cc2)Oc2cc(Br)ccc2S1(=O)=O`, the cytotoxicity call in the test with HSkMC and with HepG2 was “inactive” each time. Also, in the test with S. aureus RN4220, the growth inhibition call was “inactive”.
Turning to `CCN(CC)c1ccc(N2CC=C[C@@]34O[C@@H]5/C=C\CCCOC(=O)[C@@H]5[C@H]3C(=O)N(CCO)[C@@H]4C2=O)cc1`, the cytotoxicity call with HSkMC and with HepG2 was “inactive” in each case. Also, the growth inhibition call in the test with S. aureus RN4220 is “inactive”.
Take `CCC(NC(C)C)C(O)c1ccc(O)c(O)c1.CS(=O)(=O)O` (configuration not stated): the cytotoxicity call in the test with HSkMC and in the test with HepG2 was “inactive” in each case. For the same molecule, the growth inhibition call in the test on S. aureus RN4220 is “inactive”.
Take `C[C@H](CO)N1C[C@H](C)[C@H](CN(C)Cc2ccc(Cl)c(Cl)c2)Oc2c(NS(=O)(=O)c3cccs3)cccc2C1=O`: the cytotoxicity call with HSkMC and with HepG2 was “inactive” in each case. Moreover, the growth inhibition call in the test with S. aureus RN4220 is “inactive”.
On to `CCC(=O)n1ccc(C(=O)N2CCOCC2)n1`, for which the cytotoxicity call in the test with HSkMC and in the test with HepG2 was “inactive” each time. Further, the growth inhibition call in the test on S. aureus RN4220 is “inactive”.
As for `Cc1noc(C)c1NC(=O)N(C)C[C@@H]1Oc2ccc(NS(=O)(=O)c3cccs3)cc2CC(=O)N([C@H](C)CO)C[C@H]1C`, the cytotoxicity call in the test on HSkMC and with HepG2 was “inactive” in each case. In addition, in the test on S. aureus RN4220, the growth inhibition call was “inactive”.
Regarding `C[C@H](CO)N1C[C@H](C)[C@H](CN(C)CC2CCCCC2)Oc2ccc(NS(=O)(=O)c3cn(C)cn3)cc2CC1=O`, the cytotoxicity call in the test on HSkMC and in the test on HepG2 was “inactive” throughout. Besides, in the test with S. aureus RN4220, the growth inhibition call is “inactive”.
On to `C[C@@H]1CN([C@@H](C)CO)S(=O)(=O)c2ccc(-c3ccccc3F)cc2O[C@H]1CN(C)Cc1cncnc1`, for which the cytotoxicity call with HSkMC and in the test with HepG2 was “inactive” each time. In addition, the growth inhibition call in the test with S. aureus RN4220 is “inactive”.
With `CCc1nc2c(C)cc(N3CCN(CC(=O)N4CC(O)C4)CC3)cn2c1N(C)c1nc(-c2ccc(F)cc2)c(C#N)s1`, the cytotoxicity call in the test on HSkMC was “inactive”. The cytotoxicity call with HepG2 is “active”. In addition, the growth inhibition call in the test with S. aureus RN4220 is “inactive”.
In the case of `CNC(=O)CN(CCN(CCN(CC(=O)[O-])CC(=O)NC)CC(=O)[O-])CC(=O)[O-].[Gd]`, the cytotoxicity call in the test on HSkMC and with HepG2 was “inactive” in each case. For the same molecule, in the test with S. aureus RN4220, the growth inhibition call is “inactive”.
Take `Cc1noc(C)c1S(=O)(=O)N(C)C[C@@H]1Oc2ccc(NS(=O)(=O)c3ccc(F)cc3)cc2C(=O)N([C@H](C)CO)C[C@@H]1C`: the cytotoxicity call in the test on HSkMC and in the test with HepG2 was “inactive” in each case. Besides, in the test with S. aureus RN4220, the growth inhibition call is “inactive”.
Take `Cc1noc(C)c1NC(=O)N(C)C[C@@H]1Oc2ncc(C#CCC(C)C)cc2C(=O)N([C@H](C)CO)C[C@@H]1C`: the cytotoxicity call with HSkMC and in the test with HepG2 was “inactive” throughout. Also, the growth inhibition call in the test with S. aureus RN4220 is “inactive”.
Consider `C[C@@H]1CN([C@H](C)CO)S(=O)(=O)c2ccc(-c3cncnc3)cc2O[C@@H]1CN(C)C(=O)C1CCCCC1`, for which the cytotoxicity call with HSkMC and in the test with HepG2 was “inactive” in each case. In addition, the growth inhibition call in the test on S. aureus RN4220 was “inactive”.
As for `O=C(NCc1ccccc1)C1=C[C@@H](c2ccc(Br)cc2)C[C@@H](OCc2ccc(CO)cc2)O1`, the cytotoxicity call with HSkMC and with HepG2 was “inactive” each time. The growth inhibition call with S. aureus RN4220 was “inactive”.
Regarding `O=C(OCC1OC(OC(=O)c2cc(O)c(O)c(OC(=O)c3cc(O)c(O)c(O)c3)c2)C(OC(=O)c2cc(O)c(O)c(OC(=O)c3cc(O)c(O)c(O)c3)c2)C(OC(=O)c2cc(O)c(O)c(OC(=O)c3cc(O)c(O)c(O)c3)c2)C1OC(=O)c1cc(O)c(O)c(OC(=O)c2cc(O)c(O)c(O)c2)c1)c1cc(O)c(O)c(OC(=O)c2cc(O)c(O)c(O)c2)c1` (configuration not stated), in the test on HSkMC (human skeletal muscle cells), the cytotoxicity call is “inactive”. Besides, the cytotoxicity call in the test on HepG2 is “active”. For the same molecule, the growth inhibition call with S. aureus RN4220 was “inactive”.
In the case of `C[C@H]1CN([C@@H](C)CO)C(=O)c2cc(NC(=O)CCCN(C)C)ccc2O[C@@H]1CN(C)S(=O)(=O)c1ccc(Cl)cc1`, the cytotoxicity call in the test with HSkMC and with HepG2 was “inactive” throughout. In addition, the growth inhibition call in the test with S. aureus RN4220 was “inactive”.
Take `CCOC(=O)[C@H]1C/C=C/C[C@H](C(=O)OCC)C(=O)O[C@H]2[C@@H](OC)O[C@H](COC(=O)NCCCCCC(=O)NO)[C@@H](OC(=O)Nc3ccccc3)[C@@H]2OC1=O`: the cytotoxicity call in the test with HSkMC and with HepG2 was “inactive” in each case. For the same molecule, in the test with S. aureus RN4220, the growth inhibition call is “inactive”.
Consider `C[C@@H]1CCCCO[C@H](CN(C)C(=O)Cc2ccccc2)[C@H](C)CN([C@@H](C)CO)C(=O)c2cc(NC(=O)Nc3cccc4ccccc34)ccc2O1`, for which the cytotoxicity call with HSkMC and in the test with HepG2 was “inactive” in each case. For the same molecule, the growth inhibition call in the test on S. aureus RN4220 is “inactive”.
`C[C@H](CO)N1C[C@H](C)[C@@H](CN(C)C(=O)Nc2ccc(F)cc2)Oc2ccc(NC(=O)Nc3cccc4ccccc34)cc2CC1=O`: the cytotoxicity call with HSkMC and in the test with HepG2 was “inactive” each time. The growth inhibition call with S. aureus RN4220 is “inactive”.
